According to PubChem BioAssay AID463173 (ICCB-Longwood Screening Facility, Harvard Medical School, 2010):
Hit rate of the full screen: of about 52,000 compounds, about 4,300 (8.3%) were called active. No stated cut-off is given here; in the data, active means survival mostly below about 52% (no sharp cut-off); inactive means mostly above about 56%. The list shows a part of the results.

system: DeltatarO mutant; test: S. aureus survival, RN4220 and DeltatarO strains – OD600, teichoic acid synthesis inhibitors, primary screen (AID 463173); conditions: S. aureus RN4220 wild type/DeltatarO growth, OD600, 18 h, active compounds read low, screened at 18.75 µg/mL (by protocol)

| SMILES | survival |
| --- | --- |
| CCOc1ccccc1N(CC)C(=O)c1cc2c(=O)[nH]c3ccc(C)cc3c2s1 | inactive: 74% |
| COc1ccc(CNC(=O)c2c3c(nc4ccccc24)C(=O)N(C2CCCCC2)C3)c(OC)c1 | active: 32% |
| COC(=O)c1scc(-c2ccc(C)cc2)c1S(=O)(=O)Nc1cc(OC)c(OC)c(OC)c1 | inactive: 96% |
| C=C(C)CSc1nc2sc3c(c2c(=O)n1-c1ccccc1)CC(C(C)C)OC3 (stereo not given) | inactive: 76% |
| CCC1CN(C(=O)N2CCC(C(=O)NCc3cccc(C)c3)CC2)c2ccccc2O1 (stereo not given) | inactive: 77% |
| NC(=O)CSc1nc2cc(Cl)ccc2s1 | inactive: 100% |
| COc1ccc(CNC(=O)C(=O)Nc2ccc(OC)cc2OC)cc1 | inactive: 67% |
| O=C(O)C1C2C=CC(C2)C1C(=O)NCc1cccs1 (stereo not given) | inactive: 83% |
| CCOC(=O)c1cnc2c(C)c(Cl)ccc2c1NCCc1ccccc1 | active: -3% |
| Clc1cccc(-n2ncc3c(N4CCCCC4)ncnc32)c1 | inactive: 118% |
| O=C(Cn1cc(S(=O)(=O)Cc2cccc(Cl)c2)c2ccccc21)NCCc1ccccc1 | inactive: 74% |
| Cc1ccc(NC(=O)/C(C#N)=C/c2ccc(C(C)C)cc2)cc1C | inactive: 81% |
| CCN(c1cccc(C)c1)S(=O)(=O)c1ccc2[nH]cc(C(=O)NCCCOC)c(=O)c2c1 | inactive: 67% |
| CC(=O)Nc1nonc1-c1nnc(SCC(=O)N(C)c2ccccc2)n1C | inactive: 48% |
| COc1cc2c3c(c1OC)C1(C=CC(=NNC(N)=O)C=C1)CC3N(C(C)=O)CC2 (stereo not given) | inactive: 79% |
| COc1cccc(C(=O)NC2CCSC2=O)c1 (stereo not given) | inactive: 75% |
| O=C(NCCc1ccccc1)c1cnc2sc(N3CCCC3)nn2c1=O | inactive: 85% |
| CCN1CCN(CCCNC(=O)c2cc3c(=O)n(C)c4ccccc4c3s2)CC1 | inactive: 79% |
| Cc1cccc(OCCn2c(-c3ccc(Cl)cc3)nc3ccccc3c2=O)c1 | inactive: 105% |
| CCCc1nn2c(=O)cc(COC(=O)c3cccc(NC(=O)COc4ccccc4C)c3)nc2s1 | inactive: 83% |
| O=C(c1cc(-c2ccccc2)on1)N1CCCc2ccccc21 | inactive: 86% |
| CCc1ccccc1NC(=O)Cn1c(=O)n(Cc2ccc3c(c2)OCO3)c(=O)c2ccc(C(=O)NC3CCCCC3)cc21 | inactive: 119% |
| Cc1ccccc1-c1nc(CS(=O)(=O)CC(=O)NCC(C)c2ccccc2)c(C)o1 (stereo not given) | inactive: 48% |
| COc1cc(OC)c(NC(=O)C2CCCN(c3ncnc4c3nc3n4CCCCC3)C2)cc1Cl (stereo not given) | inactive: 122% |
| O=C(COc1ccccc1Cl)NCC1(N2CCOCC2)CCCCC1 | inactive: 106% |
